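Where inhibition never reached the appropriate level, the endpoint shown equals the highest concentration tested. Otherwise, values were interpolated linearly from a five-concentration, 48-hour dose response in 96-well plates. GI50 = concentration required for 50% inhibition of growth. TGI: total growth inhibition.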
System: NCI-H322M lung
Experiment: inhibition of tumour cell growth, NCI panel, 48 h

Cc1cc2nc3c4cc(Cl)ccc4n(CC(=S)NCCN(C)C)c3nc2cc1C
GI50: 4.04 µM
TGI: 15.5 µM

Reference: PubChem BioAssay (NCI)
